{"source": "PubChem BioAssay AID651820", "about": "(National Center for Advancing Translational Sciences (NCATS), 2012)", "note": "About 12,000 (3.5%) of roughly 340,000 compounds were called active. This list was built around the results that the source calls inconclusive (neither active nor inactive); the mix of calls is not that of the screen. Calls follow the shape of the dose curve; as a rule, active = well fitted inhibition curve with a large enough effect; inconclusive = small, poorly fitted or top-dose-only effect, or another doubt; inactive = no such curve, though single readings can be large or run the other way. Potencies of inconclusive entries are left out as doubtful fits. % is scaled to controls: 0 for no effect and ±100 for the full control effect; potency is read from the fitted curve at half-maximal effect; tags tell the direction and shape of the fitted curve."}
{"test": "qHTS Assay for Inhibitors of Hepatitis C Virus (HCV)", "conditions": "Huh7.5.1 HCVcc-Cre (HCVcc is cell-culture hepatitis C virus) infection, luciferase reporter, 44 h; activity change, negative = inhibition: at 41.8 µM (top of the series) unless noted", "method_in_brief": "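Luciferase read-out (15 sec integration) after a 15 min room-temperature substrate step quantifies HCVcc-Cre infection. Cells, 1,000 per well, had compound added 4 h post-plating, then virus at ~0.5 moi, and were cultured 44 h.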"}
{"smiles": "Cc1cc(C)c2sc(NC(=O)c3ccc(N4C(=O)CCC4=O)cc3)nc2c1", "Potency": "inconclusive [inhibitor, full curve]"}
{"smiles": "CCc1ccc(CN(C)C(=O)C2CCC(=O)N(CC3CCCCC3)C2)cc1", "note": "(stereo unspecified)", "activity change, negative = inhibition": "inactive: 6.17%"}
{"smiles": "O=C(c1ccc(Oc2ccc(Cl)cc2)c([N+](=O)[O-])c1)N1CCCC1", "Potency": "inconclusive [inhibitor, single point]"}
{"smiles": "COc1ccc(Nc2ccnc(Nc3ccc(OC)cc3)n2)cc1", "Potency": "inconclusive [inhibitor, partial curve]"}
{"smiles": "COc1ccccc1C(=O)NCC(=O)NCCc1ccc(Cl)cc1", "activity change, negative = inhibition": "inactive: 8.11%"}
{"smiles": "CCOC(=O)C1Cn2c(nc3c(c2=O)C2(CCCC2)Cc2ccccc2-3)S1", "note": "(stereo unspecified)", "Potency": "inconclusive [inhibitor, single point]"}
{"smiles": "CCCCn1c(O)c(C(C)=NCc2ccc3c(c2)OCO3)c(=O)[nH]c1=O", "Potency": "inconclusive [inhibitor, partial curve]"}
{"smiles": "Cc1ccc(S(=O)(=O)N2CCC(C(=O)OCC(=O)N(C)CC(=O)Nc3ccc(F)cc3)CC2)cc1C", "Potency": "inconclusive [inhibitor, single point]"}
{"smiles": "COc1cc(-c2noc(C)c2C(=O)N[C@@H](CO)Cc2ccccc2)cc(OC)c1OC", "Potency": "inconclusive [inhibitor, partial curve]"}
{"smiles": "CCOCc1cnc(C)nc1NCC(=O)c1c(C)[nH]c2cc(C)ccc12", "activity change, negative = inhibition": "inactive: -13%"}
{"smiles": "CC1CC(C)CN(CCOCCSc2ccc(Cl)cc2)C1", "note": "(stereo unspecified)", "Potency": "inconclusive [inhibitor, single point]"}
{"smiles": "CCOC(=O)c1c(C)n(C)c2cc(Br)c(C(=O)OC)cc12", "Potency": "active: 10 µM"}
{"smiles": "Cc1ccc(-c2onc(C)c2C)cc1S(=O)(=O)N1CCOc2ccccc21", "Potency": "inconclusive [inhibitor, single point]"}
{"smiles": "Cc1ncc(CN2CCCC(C(=O)Nc3ccc(-c4ccco4)cc3)C2)n1C", "note": "(stereo unspecified)", "Potency": "inconclusive [inhibitor, partial curve, poor fit]"}
{"smiles": "COc1ccc(COc2cc(-c3cccc(OC)c3)nc3ccc(NC(=O)c4ccc(OC)cc4)cc23)cc1", "Potency": "active: 7.08 µM"}
{"smiles": "COc1cc(OC)cc(C(=O)NC(C(=O)Nc2ccc3c(c2)CCC3)C(C)C)c1", "note": "(stereo unspecified)", "Potency": "inconclusive [inhibitor, single point]"}
{"smiles": "COc1ccccc1N1CCN(C(=O)c2ccc(Br)o2)CC1", "Potency": "inconclusive [inhibitor, partial curve, poor fit]"}
{"smiles": "O=C(Cn1nnc(-c2ccc(F)cc2)n1)Nc1cccc(S(=O)(=O)N2CCCC2)c1", "Potency": "active: 22.4 µM"}
{"smiles": "O=C(Nc1ccc(N2CCOCC2)cc1)c1nc2ccccc2s1", "Potency": "inconclusive [inhibitor, single point]"}
{"smiles": "COc1cccc(CNC(=O)c2nnn(CC(=O)Nc3ccc(Br)cc3)c2N)c1", "Potency": "inconclusive [inhibitor, partial curve]"}
{"smiles": "O=C(N/N=C/c1ccc(Cl)cc1)C(=O)N1CCCCCC1", "activity change, negative = inhibition": "inactive: 1.23%"}
{"smiles": "c1ccc(COc2cccc(CN3CCc4ccccc4C3)c2)cc1", "activity change, negative = inhibition": "inactive: 5.22%"}
{"smiles": "OC1C(O)C(O)C(O)C(O)C1O", "note": "(stereo unspecified)", "Potency": "inconclusive [inhibitor, single point]"}
{"smiles": "CN1CCCN(C(=O)CC2(CC(=O)O)CCCCC2)CC1", "activity change, negative = inhibition": "inactive: 9.27%"}
{"smiles": "O=C(CSc1n[nH]c(-c2ccccc2O)n1)N1CCCc2ccccc21", "Potency": "inconclusive [inhibitor, partial curve, poor fit]"}
{"smiles": "CSCCC(NC(=O)c1cc(C)oc1C)C(=O)O", "note": "(stereo unspecified)", "activity change, negative = inhibition": "inactive: 8.09%"}
{"smiles": "CC1CN(c2nnc(-c3ccccc3)c3ccccc23)CC(C)O1", "note": "(stereo unspecified)", "Potency": "inconclusive [inhibitor, single point]"}
{"smiles": "Cc1cc2ncn(CCOc3ccccc3C#N)c2cc1C", "activity change, negative = inhibition": "inactive: -29.5%"}
{"smiles": "O=C(CN1CCN(S(=O)(=O)c2ccc(Cl)c(C(F)(F)F)c2)CC1)NC(=O)NC1CCCCC1", "Potency": "inconclusive [inhibitor, single point]"}
{"smiles": "Cc1cc(C(=O)NNC(=O)c2ccccc2O)c(C)o1", "activity change, negative = inhibition": "inactive: -18.6%"}
{"smiles": "C=CCn1c(SCC(=O)NCCc2ccccc2)nc2c([nH]c3ccccc32)c1=O", "Potency": "inconclusive [inhibitor, single point]"}
{"smiles": "COc1cc(O)cc2c1[C@@H]1Oc3c(ccc(O)c3CC=C(C)C)[C@@H]1CO2", "Potency": "inconclusive [inhibitor, full curve]"}
{"smiles": "COc1cccc(CNC(=O)C(CC(C)C)NC(=O)c2ccccc2C)c1", "note": "(stereo unspecified)", "Potency": "inconclusive [inhibitor, single point]"}
{"smiles": "Cc1ccc(NC(=O)c2cnn(-c3ccccc3)c2C)cc1", "Potency": "inconclusive [inhibitor, single point]"}
{"smiles": "CCOc1ccc2c3c(c(=O)oc2c1OCC)CCCC3", "Potency": "inconclusive [inhibitor, partial curve]"}
{"smiles": "COc1ccc(O)c(/C=N/n2c(-c3ccco3)csc2=Nc2cccnc2)c1", "activity change, negative = inhibition": "inactive: -1.23%"}
{"smiles": "C=CCc1ccc(OCC(O)COCC)c(OC)c1", "note": "(stereo unspecified)", "Potency": "inconclusive [inhibitor, partial curve, poor fit]"}
{"smiles": "O=C(/C=C/c1cccs1)NC(=S)Nc1ccccc1", "activity change, negative = inhibition": "inactive: 11.9%"}
{"smiles": "CCc1ccc2oc(C(=O)Nc3nonc3C)c(C)c2c1", "Potency": "inconclusive [inhibitor, single point]"}
{"smiles": "CC(C)(C)S(=O)N1Cc2ccc(CO)cc2[C@@H]1CCO", "note": "(stereo partly specified)", "activity change, negative = inhibition": "inactive: -3.48% [at 8.37 µM]"}
{"smiles": "C=CCNC(=O)C1CC(=O)N(c2ccc(OCC(=O)Nc3cccc(OC)c3)cc2)C1", "note": "(stereo unspecified)", "Potency": "inconclusive [inhibitor, partial curve]"}
{"smiles": "CCN(CC)CCn1c(SCC(=O)Nc2ccc3c(c2)CCC3)nc2ccccc2c1=O", "Potency": "inconclusive [inhibitor, partial curve]"}
{"smiles": "O=C(NCCN1CCOCC1)c1cc(-c2ccco2)on1", "activity change, negative = inhibition": "inactive: -24.7%"}
{"smiles": "CCOC(=O)c1ccc(Oc2nc(SC)nc(N(C)C)n2)cc1", "Potency": "inconclusive [inhibitor, partial curve]"}
{"smiles": "O=C(NCCN1CCOCC1)c1cc(Br)ccc1Cl", "activity change, negative = inhibition": "inactive: 13.8%"}
{"smiles": "COc1cc(NC(=O)c2ccccc2)c(C)cc1NC(=O)CC(CC(=O)O)c1ccccc1", "note": "(stereo unspecified)", "activity change, negative = inhibition": "inactive: 18.6%"}
